This is an account of results in the RNAGym collection of RNA variant scans (doi:10.7554/elife.90254).

Read counts are not given, so values of variants with three or more changes are uncertain.

B1: LINE1-full (parent)
chain: UACGUAGGUGGUUUUCCCCUGAUAGUGCUAAGGGGGCCUGGAAGUUUGGACUGGGCAGAGCUCAACACAGCGUGGCAAAGUGGCUGUGGCUAGACUGCCUCUCUGGAUUCCUCGUCACUCAGCAGGGCAUCUCUGAGAGAAAUGCC

The variants in the data set derive from B1. The data set is described as follows: self-cleavage, relative activity (ratio to wild type); higher = more cleavage; in vitro, sequencing; the parent is a self-cleaving ribozyme.
Consider UACGUAGGUGGUUUUCCCCUGAUAGUGCUAAGGGGGCCUGGAAGUUUGGACCGGGCAGAGCUCAACACAGCGUGGCAAAUUGGCUGUGGCUAGACUGCCUCUCUGGAUUCCUCGUCACACAGCAGGGCACCUCUGAGAGAAAUGCC [U52C G80U U119A U130C], for which the self-cleavage was found to be 0.34. The figure for UACGUAGGUGGUUUUCCCCUGAUAGUGCUAAGGGGGCCUGGAAGUUUGGACCGAGCAGAGCUCAACACAGCGUGGCAAAGGGGCUGUGGCUAGACUGCCUCUCAGGAUUCCUCGUCACUCAGCAGGGCAUCUCUGAGAGAAAUGCC [U52C G54A U81G U104A] is 0.23; for UACGUAGGUGGUUUUCCCCUGAUAGUGCUAAGGGGGCCUGGAAGUUUGGACCGGGCAGAGCUCAACACAGCGUGGCAAAGUGGCUUUGGCUAGACUGCCUCUCUGGAUUCCUCGUCACUCAGCAGGGCUUCUCUGAGAGAAAUGCC [U52C G86U A129U] it is 0.08; for UACGUAGGUGGUUUUCCCCUGAUAGUGCUAAGGGGGCCUGGAAGUUUGGACCGGGCAGAGCUCAACACAGCGUGGGAAAGAGGCAGUGGCUAGACUGCCUCUCUGGAUUCCUCGUCACUCAGCAGGGCAUCUCUAAGAGAAAUGCC [U52C C76G U81A U85A G135A] it is 0.05. The figure for UACGUAGGUGGUUUUCCCCUGAUAGUGCUAAGGGGGCCUGGAAGUUUGGACCGGGCAGAGCUCAACACAGCGUGGCAAAGAGGCUGUGGCUAGACUGCCUCUCUGGAUUCCUCGUCACUCAGCAGGGCAUCUCCAAGAGAAAUGCC [U52C U81A U134C G135A] is 2.3; for UACGUAGGUGGUUUUCCCCUGAUAGUGCUAAGGGGGCCUGGAAGUUUGGACCGGGCAGAGCUCAACACAGCAUGGCAAAGUGGCUGUGGCUAGACUGCCUCACUGGAUUCCUCGUCACUCUGCAGGGCAUCUCUGAGAGAAAUGCC [U52C G72A U102A A121U] it is 1.02. The figure for UACGUAGGUGGUUUUCCCCUGAUAGUGCUAAGGGGGCCUGGAAGUUUGGACCGGGCAGAGCACAACACAGCGUGGCAAAGUGGCUGUGGCUAGACUGCCUCUCUGGUUUCCUCGUCACUCAGCAGGGCAUCUCUGAGAGAAAUGCC [U52C U62A A107U] is 0.05; for UACGUAGGUGGUUUUCCCCUGAUAGUGCUAAGGGGGCCUGGAAGUUUGGACCGGGCAGAGCUCAACACAGCGUGGCAAAGUGGCUGUGGCUAGACUGCCUCUCUGGAUUCCUCGUCACUCAGCAGGGCAUCUCUGGGAGAAACGCC [U52C A136G U143C] it is 2.04; for UACGUAGGUGGUUUUCCCCUGAUAGUGCUAAGGGGGCCUGGAAGUUUGGACCGGGCAGAGCUCAACACAGCGUGGCAAAGUGGCUGUGGCUAGACUGCCUCUCUGGAUUUCUCGUCACUUAGCAGGGCAUCUCUGAGAGAAAUGCC [U52C C110U C120U] it is 1.14. Turning to UACGUAGGUGGUUUUCCCCUGAUAGUGCUAAGGGGGCCUGGAAGUUUGGACCGGGCAGAGCUCAACACAGCGUGGCAAAGUGGCUGUGGCUAGACUGCCUCUCUGGGUUCCUCGUCACUCAGCAGAGCAUCUCUGGGAGAAAUGCC [U52C A107G G126A A136G], the self-cleavage is 1.53. The figure for UACGUAGGUGGUUUUCCCCUGAUAGUGCUAAGGGGGCCUGGAAGUUUGGACCGGGCAGAGCUCAACACAGCGUAGCAAAGUGGCUGUGGCUAGGCUGCCUCUCUGGAUUCCUCGUCACUCAGCAGGGCGUCUCUGGGAGAAAUGCC [U52C G74A A94G A129G A136G] is 0.15; for UACGUAGGUGGUUUUCCCCUGAUAGUGCUAAGGGGGCCUGGAAGUUUGGACCGGGCAAAGCUCAACACAGCGUGGCAAAGUGGCUGUGGCUAGACUGCCUCUCUGGAUUCCUCGUCACUCAGCAGGGCGUCUCUGAGAGAAAUGCC [U52C G58A A129G] it is 0. The same measure for UACGUAGGUGGUUUUCCCCUGAUAGUGCUAAGGGGGCCUGGAAGUUUGGACCGGGCAGAACUCAACACAGCGUGGCAAAGUGGCUGUGGCUAGACUGCCUCUCUGGAUUCCUCGUCACUCAGCAGGGCAUCUCUGAGAGAGAUGCC [U52C G60A A141G]: 0.06; for UACGUAGGUGGUUUUCCCCUGAUAGUGCUAAGGGGGCCUGGAAGUUUGGACCGGGCAGAGCUCAACACAGCGUGGCAAAGUGGCAGUGGCUAGACUGCCUCUCUGGAUUCCUCGUCACUCAGCUGGGCAUCUCUGAGAGAAAUGCC [U52C U85A A124U]: 0.15. The figure for UACGUAGGUGGUUUUCCCCUGAUAGUGCUAAGGGGGCCUGGAAGUUUGGACCGGGCAGAGCUCAACACAGCAUGGCAAAGUGGCUGUGGCUGGACUGCCUCUCUGGAUUCCUCGUCACUCAGCGGGGCAUCUCUGGGAGAAAUGCC [U52C G72A A92G A124G A136G] is 0.05; for UACGUAGGUGGUUUUCCCCUGAUAGUGCUAAGGGGGCCUGGAAGUUUGGACCGGGCAGAGCUCAACACAGCGUGGCAAAGUGGCUGUGGCUAGACUGCCUCUCUGGAUUCCUCGUUACUCAGCAGGGCAUCUCUGAGAGGAAUGCC [U52C C116U A140G] it is 1.63. Turning to UACGUAGGUGGUUUUCCCCUGAUAGUGCUAAGGGGGCCUGGAAGUUUGGACCGGGCAGAGCACUACACAGCGUGGCAAAGUGGCUGUGGCUAGGCUGCCUCUCUGGAUUCCUCGUCACUCAGCAGGGCAUCUCUGAGAGAAAUGCC [U52C U62A A64U A94G], the self-cleavage was 0. The same measure for UACGUAGGUGGUUUUCCCCUGAUAGUGCUAAGGGGGCCUGGAAGUUUGGACCGGGCAGAGCUCAACACAGCGUGGCAAAGUGGCCGUGGCUAGACUGCCUCUCUGGAUUCCUCGUCACUCAGCAGGGCAUCUCUGAGAGAGAUGCC [U52C U85C A141G]: 0.07; for UACGUAGGUGGUUUUCCCCUGAUAGUGCUAAGGGGGCCUGGAAGUUUGGACCGGGCAGAGCUCAACACAGCGCGGCUAAGUGGCUGUGGCUAGACUGCCUCUCUGGAUUCCUCGUCACUCAGCAGGGCAUCUCUGAGAGAAGUGUC [U52C U73C A77U A142G C145U]: 2.63. The same measure for UACGUAGGUGGUUUUCCCCUGAUAGUGCUAAGGGGGCCUGGAAGUUUGGACCGGGCAGAGCUCAACACAGCGUGGCAAAGUGGUUGUGGCUAGACUGCCUCUCUGGAUUCCUCGCCACACAGCAGGGCAUCUCUGAGAGAAGUGCC [U52C C84U U115C U119A A142G]: 0.17.
